# In PubChem BioAssay (Tox21):
# “And” between values parts separate entries of the source, which are not always exact repeats. Equal entries are not always repeated. The shares of active, inactive and inconclusive entries below differ from those in the screen. Potencies beside an inconclusive call are fits to weak or partial responses and may not hold up. Some compounds were tested as several samples or in several runs, with calls that do not always agree. The source made the active and inactive calls. Calls follow the shape of the dose curve; as a rule, active = well fitted cell-killing curve with a large enough effect in the repeat runs; inconclusive = weak or mixed curves; inactive = flat fitted curve, though single readings scatter.
# Assay: qHTS assay to identify small molecule antagonists of the estrogen related receptor (ERR) signaling pathway from Tox21 library - cell viability counter screen (AID 1224834); also: nearly all actives have a fitted effect of over 30% in size
# Settings: ERR reporter cells viability, CellTiter-Fluor, 17.5 h; series mostly up to 92.4 µM
# How it was run: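 Multiplexed viability counter screen in ERR cells: 17.5 h compound exposure at 37 C, CellTiter-Fluor added, 30 min at 37 C/5% CO2, fluorescence read.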
# Potency is read from the fitted curve at half-maximal effect; tags tell the direction and shape of the fitted curve.
row,SMILES,Potency
1,COP(=S)(OC)Oc1ccc([N+](=O)[O-])c(C)c1,"inconclusive: 54.5 µM [cytotoxic, partial curve]"
2,Oc1c(Cl)c(Cl)c(Cl)c(Cl)c1Cl,inconclusive: 75.4 µM [cytotoxic]
3,O=C(Nc1ccccc1)Nc1cnns1,"inconclusive: 61.1 µM [cytotoxic, partial curve]"
4,Cn1cc(-c2ccccc2)c(=O)c(-c2cccc(C(F)(F)F)c2)c1,"inconclusive: 53.2 µM [cytotoxic, partial curve] and inconclusive: 38.6 µM [cytotoxic, partial curve]"
5,CCOP(=S)(OCC)Oc1ccc2c(C)c(Cl)c(=O)oc2c1,"inconclusive: 61.8 µM [cytotoxic, partial curve] and inconclusive: 61.1 µM [cytotoxic, partial curve, poor fit]"
6,Nc1ccc(Br)cc1,"inconclusive: 6.1 µM [cytotoxic, full curve] and inconclusive: 6.86 µM [cytotoxic, full curve]"
7,CC(=O)/C=C/c1ccc2c(c1)OCO2,"inconclusive: 68.9 µM [cytotoxic, single point]"
8,COc1cccc2c1C(=O)c1c(O)c3c(c(O)c1C2=O)C[C@@](O)(C(=O)CO)CC3OC1CC(N2CCOC(OC)C2)C(O)C(C)O1 (stereo partly drawn),"inconclusive: 0.211 µM [cytotoxic, full curve]"
9,C/C(=C\c1ccccc1)[N+](=O)[O-],active: 27.3 µM
10,Cn1c(N)nc2c3cccnc3ccc21,"inconclusive: 58.1 µM [cytotoxic, partial curve]"
11,CCN(CC)C(=S)[S-].CCN(CC)C(=S)[S-].[Zn+2],active: 3.41 µM
12,CCC(C)Nc1c([N+](=O)[O-])cc(C(C)(C)C)cc1[N+](=O)[O-] (stereo not drawn),inactive
13,Oc1ccccc1-c1ccccc1,inconclusive: 54.5 µM [cytotoxic]
14,OC(Cc1ccccc1Cl)(Cn1[nH]cnc1=S)C1(Cl)CC1 (stereo not drawn),"inconclusive: 68.6 µM [cytotoxic, partial curve, poor fit]"
15,Nc1ccc(Cc2ccc(N)c(Cl)c2)cc1Cl,"inconclusive: 59.1 µM [cytotoxic, partial curve]"
16,Oc1c(Br)c(Br)c(Br)c(Br)c1Br,"inconclusive: 77.4 µM [cytotoxic, single point]"
17,Oc1cc(Cl)c(Cl)c(Cl)c1Cl,"inconclusive: 67 µM [cytotoxic, single point]"
18,N#Cc1cc(I)c(O)c(I)c1,"inconclusive: 34.4 µM [cytotoxic, partial curve]"
19,O=C(O)C1(c2ccc3c(c2)OC[C@H](Cc2ccc(-c4ccccc4)cc2)[C@H]3O)CCCC1,"inconclusive: 77 µM [cytotoxic, single point]"

row,SMILES,Potency
1,COC(=O)N(OC)c1ccccc1COc1ccn(-c2ccc(Cl)cc2)n1,"inconclusive: 61.1 µM [cytotoxic, partial curve]"
2,[CH3][Sn]([Cl])([Cl])[Cl],inactive
3,O=c1[nH]c(=O)[nH]c(=O)[nH]1,inactive
4,O=C(CBr)c1ccc(O)cc1,"inconclusive: 77 µM [cytotoxic, single point]"
5,Nc1ccc(N)cc1,inconclusive: 29.8 µM [cytotoxic]
6,Cc1ccc(-c2c(Cl)nc(C#N)n2S(=O)(=O)N(C)C)cc1,active: 54.4 µM
7,Nc1ccc(Cl)cc1C(=O)c1ccccc1,"inconclusive: 48.6 µM [cytotoxic, partial curve]"
8,CCOP(=S)(OCC)SCn1c(=O)oc2cc(Cl)ccc21,"inconclusive: 52.1 µM [cytotoxic, partial curve] and inconclusive: 68.6 µM [cytotoxic, partial curve, poor fit]"
9,O=[N+]([O-])c1ccc(Oc2ccc(Cl)cc2Cl)cc1,inactive
10,CCOS(=O)(=O)OCC,active: 54.5 µM
11,COC(=O)C(C)N(C(=O)Cc1ccccc1)c1c(C)cccc1C (stereo not drawn),"inconclusive: 54.5 µM [cytotoxic, partial curve]"
12,NS(=O)(=O)C(F)(F)C(F)(F)C(F)(F)C(F)(F)C(F)(F)C(F)(F)C(F)(F)C(F)(F)F,"inconclusive: 54.5 µM [cytotoxic, partial curve]"
13,Cc1cc(C2CC2)nc(Nc2ccccc2)n1,"inconclusive: 77 µM [cytotoxic, single point]"
14,O=[N+]([O-])c1cc(C(F)(F)F)cc([N+](=O)[O-])c1Cl,active: 34.5 µM
15,COP(=S)(OC)Oc1cc(Cl)c(Cl)cc1Cl,"inconclusive: 29.8 µM [rising, partial curve, poor fit]"
16,Oc1ccc(Cl)c(Cl)c1Cl,"inconclusive: 71.1 µM [cytotoxic, single point]"
17,CC[C@H]1C[C@H]2[C@@H]3CCC4=CC(=O)CC[C@@H]4[C@H]3CC[C@]2(C)[C@H]1O,"inconclusive: 33.5 µM [cytotoxic, single point]"
18,CCCCCCCCCC(=O)O[C@H]1CC[C@H]2[C@@H]3CCC4=CC(=O)CC[C@@H]4[C@H]3CC[C@]12C,inactive
19,BrC(Br)C(Br)(Br)Br,"inconclusive: 77.4 µM [cytotoxic, partial curve, poor fit]"
